± gives the standard deviation of the averaged measurements. The list shows a part of the results.

The subject of this assay is PfAP2-I AP2 domain 3 (GST-tagged). As to the kind of experiment: gcPBM binding intensity (ln(normalized median fluorescence intensity)); higher = stronger DNA binding. In a few lines: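 GST-tagged P. falciparum DNA-binding domains produced in E. coli were incubated for 1 h on an Agilent 4 × 180k array of primer-extended double-stranded 36-bp intergenic genomic probes with negative controls. Binding intensity is the highest Masliner-normalised natural-log median intensity across replicate spots of either probe orientation, with bound protein detected by Alexa488 anti-GST antibody at 488 nm.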
Turning to “TTTATATTATACGCACTAATATATATATATATATAT [TGCATGCA_negctrl_site47]”, the “gcPBM binding intensity (ln)” value amounted to 9.66 ± 0.35.

As to “GTAATATATATTAAGTAATAGTTTATCTTAGGAAAA [TGCATGCA_negctrl_site302]”, the “gcPBM binding intensity (ln)” value was determined as 7.42 ± 0.67.

As to “ATCTTATATCGTAGAGATTTTTTTTTTTTTTCATTT [XGTACX_negctrl_site140]”, the “gcPBM binding intensity (ln)” value stood at 7.21 ± 0.46.

Turning to “AATTTCTTCTTAGGGTGTACAATTTGACATAAGGAA [XGTACX_site1773]”, the “gcPBM binding intensity (ln)” value came to 8.23 ± 0.28.

As for “TACTTATATTGAAATGGTACAGATAAAAAAAAAAAA [XGTACX_site1407]”, the “gcPBM binding intensity (ln)” value is 8.02 ± 0.59.

With “TTTTGTAATGTGAATATTTGTATATTATTTGTATAT [CACACA_negctrl_site1677]”, the “gcPBM binding intensity (ln)” value turned out to be 7.61 ± 0.5.

As to “ACATTCTATCTAAGTACACACATTAATTTTTTTTTT [CACACA_site4106]”, the “gcPBM binding intensity (ln)” value came to 8.12 ± 0.49.

For the sequence “TAATATTTTTTGTGTACACATATATATATATATATA [CACACA_site5504]”, the “gcPBM binding intensity (ln)” value came to 9.35 ± 0.34.

Turning to “AATTTACATATATATTGTACATTTATGTATATATAT [XGTACX_site4186]”, the “gcPBM binding intensity (ln)” value came to 8.1 ± 0.47.

For the sequence “GATATAGGGCGTATGTTAATCGTGAAAGAGTGTCTT [GTGCAC_negctrl_site102]”, the “gcPBM binding intensity (ln)” value was found to be 8.13 ± 0.69.

Take “TTCAAATGATTTATGTGTACATAAAATTATTTTTTA [XGTACX_site107]”: the “gcPBM binding intensity (ln)” value worked out at 7.47 ± 0.16.

As for “ATAAAGAATATAAATACACACTTAAATATAGATTAT [CACACA_site7804]”, the “gcPBM binding intensity (ln)” value turned out to be 7.6 ± 0.45.

For “ATTGGTTCCCCTCTCTTTTCAATATATTTTTTTTTT [XGTACX_negctrl_site259]”, the “gcPBM binding intensity (ln)” value worked out at 7.82 ± 0.47.

As for “TAATGAAGCTTATGCACACGTTCATTATTTATATTA [CACACA_site3219]”, the “gcPBM binding intensity (ln)” value stood at 9.6 ± 0.45.

Regarding “AAAAAATTAAAAATCACACATAAATATATATAAAAA [CACACA_site4192]”, the “gcPBM binding intensity (ln)” value was found to be 7.53 ± 0.67.

Consider “ATATTACAGTACAATACATGCATATGGAAAAAAAAA [TGCATGCA_site72]”, for which the “gcPBM binding intensity (ln)” value was determined as 8.02 ± 0.44.

In the case of “TGTAGAACTCAATATTGTACATTATATAAAATGGGA [XGTACX_site3857]”, the “gcPBM binding intensity (ln)” value was 7.83 ± 0.54.

For the sequence “TTTAAATATATATATTGTACAAAAAAAAATAATAAA [XGTACX_site4759]”, the “gcPBM binding intensity (ln)” value turned out to be 7.93 ± 0.53.

For the sequence “ATAAAATTTATGACTTGTACATGTAAATAAAATATA [XGTACX_site762]”, the “gcPBM binding intensity (ln)” value was found to be 7.84 ± 0.28.

Turning to “TTTTTTTGCATTTCATGTACATATATTGAGCTTAAA [XGTACX_site8485]”, the “gcPBM binding intensity (ln)” value was found to be 8.24 ± 0.71.

“ATATATATATATTGTACACACATTTATGCATATATA [CACACA_site5738]”: the “gcPBM binding intensity (ln)” value came to 9.28 ± 0.16.

Take “GCCTTTTAGTATTTCACACACGTAAATGAGTATATC [CACACA_site4748]”: the “gcPBM binding intensity (ln)” value turned out to be 8.13 ± 0.56.

For the sequence “CTTCTTGTAAAATTTGCATGTAATTAAAAGAGAATG [TGCATGCA_site484]”, the “gcPBM binding intensity (ln)” value came to 7.88 ± 0.67.

“TTCCCTATCTTTTCAGTGCATTTTGTTTCCTACCTT [GTGCAC_site9813]”: the “gcPBM binding intensity (ln)” value amounted to 9.77 ± 0.47.

Consider “AAGATAAATTATTATAAATCAATTGTGCCAACAATA [CACACA_negctrl_site144]”, for which the “gcPBM binding intensity (ln)” value is 7.99 ± 0.39.

Turning to “TTTTTTTTGTGTTCAAGTACAAAATTTTAAAGGTCA [XGTACX_site4011]”, the “gcPBM binding intensity (ln)” value was 7.74 ± 0.28.

Regarding “TATATATATATATAAGCACACAAACAAAAAAAATTA [CACACA_site9293]”, the “gcPBM binding intensity (ln)” value was found to be 9.36 ± 0.18.

Take “GGTTATTTCACAGAATGTACTTATTATATATAAAAT [XGTACX_site8886]”: the “gcPBM binding intensity (ln)” value was 7.89 ± 0.4.

Take “TATAAAAATATTTCTACACACATTAAAATATATATA [CACACA_site4770]”: the “gcPBM binding intensity (ln)” value amounted to 7.67 ± 0.59.

In the case of “CATTTGCCCAGGCACACACACATAAAAAGAAAAATA [CACACA_site356]”, the “gcPBM binding intensity (ln)” value was 7.89 ± 0.47.

As for “AATGAAAGGATGCTGTGTACATATATATATATATAT [XGTACX_site7901]”, the “gcPBM binding intensity (ln)” value is 9.49 ± 0.35.

Regarding “TGGTCTTTTAAACAAAAATATAAATTTTTAAATATG [CACACA_negctrl_site392]”, the “gcPBM binding intensity (ln)” value worked out at 7.47 ± 0.45.

With “AATTTAATATAATGCACACATAAAAAAAAAAAATTC [CACACA_site1504]”, the “gcPBM binding intensity (ln)” value amounted to 11 ± 0.61.

With “AGCTTGTGGATGCAGGTGCTACATTTGTTCTATAAT [GTGCAC_site9645]”, the “gcPBM binding intensity (ln)” value was determined as 8.86 ± 0.38.

On to “AAGAAAATTGTCTGAAGTACAAAACATTAATAATAT [XGTACX_site4864]”, for which the “gcPBM binding intensity (ln)” value was found to be 7.77 ± 0.62.

As to CATATTATTATTTTGGTGCATACTTATATATATTTT, the “gcPBM binding intensity (ln)” value came out at 9.53 ± 0.085.

With “GTACCTATTTCATACACACACACACCCAAACAAACA [CACACA_site976]”, the “gcPBM binding intensity (ln)” value is 8.57 ± 0.35.

As to “GAAACAATTTGATATTGTACATAAATAAATAAAAAC [XGTACX_site8869]”, the “gcPBM binding intensity (ln)” value came out at 8.27 ± 0.49.

As to “AACATTGATAAATATAAACACACGAAAACAGACATA [CACACA_site490]”, the “gcPBM binding intensity (ln)” value was determined as 8.05 ± 0.64.

As for “TAATTTTTTTTAATAACACACATATAAATATAAATA [CACACA_site6521]”, the “gcPBM binding intensity (ln)” value is 7.66 ± 0.42.

Consider “CATTTGCACCCGCACACACACATAAAAAGAAAAATA [CACACA_site4350]”, for which the “gcPBM binding intensity (ln)” value turned out to be 10.7 ± 0.8.

“CTTGTACCTAGAAATACACACAATTCTATAACTTAT [CACACA_site7355]”: the “gcPBM binding intensity (ln)” value stood at 7.86 ± 0.31.

“AATGTGTAGACACGCACACACAAAAAAATATATATA [CACACA_site5595]”: the “gcPBM binding intensity (ln)” value is 8.12 ± 0.79.

“AATGTAGAAATGGGTGCACACACATATATAATATAT [CACACA_site8799]”: the “gcPBM binding intensity (ln)” value came to 10.3 ± 0.26.

In the case of “GTTTTATTTTCAATGTGTACTTATTATTTGATATAC [XGTACX_site6402]”, the “gcPBM binding intensity (ln)” value was determined as 8.21 ± 0.4.

On to “GATCCATTATTGATCCGTACTTATTCATGTTATATA [XGTACX_site5946]”, for which the “gcPBM binding intensity (ln)” value amounted to 7.83 ± 0.54.

For “TGTTATAAGATTTATGTACACACATATACACCCCTC [CACACA_site8141]”, the “gcPBM binding intensity (ln)” value worked out at 8.545 ± 0.078.

On to TATATATATATATGTATGCACTTTAATTTTATAAGG, for which the “gcPBM binding intensity (ln)” value is 9.85 ± 0.26.

On to “TATATATGTATATATACACACAACGGTTATAAATAT [CACACA_site1128]”, for which the “gcPBM binding intensity (ln)” value is 7.96 ± 0.6.

As to “AATATAAATAAAAACACACACACACCGATATATATA [CACACA_site5283]”, the “gcPBM binding intensity (ln)” value is 8.26 ± 0.86.

Regarding “AAGATTAGGTTAATTAGTACTTATTATATTGTAATG [XGTACX_site3653]”, the “gcPBM binding intensity (ln)” value came to 7.49 ± 0.37.

On to “CATACATTTAAAAAGTGTACGTATATGAAAAAAGGA [XGTACX_site6512]”, for which the “gcPBM binding intensity (ln)” value is 8.05 ± 0.57.

For “ACCTTTGTAGTTGGTCCACACACATATATGGAAGAA [CACACA_site8351]”, the “gcPBM binding intensity (ln)” value stood at 8.29 ± 0.33.

“ACATATATATAATATATATATCATCATATTTTCTTA [CACACA_negctrl_site853]”: the “gcPBM binding intensity (ln)” value turned out to be 7.56 ± 0.61.

Regarding “TGTGTGTGTATATGTGTGCACATATAAAATAGAAGA [GTGCAC_site9714]”, the “gcPBM binding intensity (ln)” value stood at 10.23 ± 0.021.

On to “ATATGTGTTATTTATACATGCAGAAGAATATCTATT [TGCATGCA_site828]”, for which the “gcPBM binding intensity (ln)” value worked out at 7.93 ± 0.62.

The values are drawn from the supplement of paper PMC11417369.
